These results are taken from PubChem BioAssay AID463173 (ICCB-Longwood Screening Facility, Harvard Medical School, 2010).

Hit rate of the full screen: of about 52,000 compounds, about 4,300 (8.3%) were called active. Rule as the data show it: active = survival mostly below about 52% (no sharp cut-off); inactive = mostly above about 56%. The list shows a part of the results.

This assay deals with DeltatarO mutant. Put plainly: growth inhibition of S. aureus wild type versus tarO mutant, primary screen, teichoic acid synthesis inhibitors, RN4220, OD600 (AID 463173). The following applies: OD600, 18 h, stronger effect = lower value, screened at 18.75 µg/mL (by protocol).
Turning to `O=C(CCc1nc(CN2CCN(S(=O)(=O)c3ccc(F)cc3)CC2)no1)N1CCCCC1`, the survival is inactive: 94%.

As for `CCc1ccc(C(=O)c2cn(CC(=O)NCCc3ccc(OC)c(OC)c3)c3nc(C)ccc3c2=O)cc1`, the survival was inactive: 81%.

In the case of `COc1cccc(NC(=O)CSC2=Nc3ccccc3N=C(c3ccc(F)cc3)C2)c1`, the survival is inactive: 92%.

In the case of `O=C(c1ccc2c(c1)N(Cc1ccccc1F)C(=O)c1ccccc1S2(=O)=O)N1CCCCC1`, the survival was inactive: 87%.

On to `Cc1ccc(CNC(=O)CCCCn2c(=O)c3ccccc3n(Cc3c(C)cc(C)cc3C)c2=O)cc1`, for which the survival is inactive: 68%.

Consider `COc1cccc(NC(=O)CSC2=Nc3ccccc3C3=NC(CC(=O)NCCc4ccccc4)C(=O)N23)c1` (configuration not stated), for which the survival was inactive: 107%.

`COc1ccccc1N1CCN(C(=O)Cn2ncc3c([nH]c4ccccc43)c2=O)CC1`: the survival is inactive: 101%.

Turning to `NC(=O)Nn1c(CCC(=O)O)ccc1-c1ccc(Cl)cc1`, the survival was inactive: 99%.

For `Cc1ccc(C2C=C(c3ccc(Cl)cc3)Nc3nc(NS(=O)(=O)c4ccccc4)nn32)cc1` (configuration not stated), the survival is inactive: 62%.

`CCN1CCN(C(=O)c2cnn(-c3ccc(F)cc3)c2-n2cccc2)CC1`: the survival is inactive: 135%.

Regarding `O=C(CCC1N=C2c3ccccc3N=C(SCC(=O)Nc3ccccc3F)N2C1=O)NCc1ccccc1` (configuration not stated), the survival is inactive: 81%.

Turning to `O=c1nc2sc3ccccc3n2c(=O)n1-c1ccc(Cl)c(Cl)c1`, the survival was active: 22%.

For the molecule `O=C1c2[nH]nc(-c3ccccc3O)c2C(c2ccc(Cl)cc2)N1Cc1ccco1` (configuration not stated), the survival is active: -1%.

For `Cc1ccc2nc(N3CCN(Cc4nnnn4Cc4ccccc4)CC3)c(C#N)cc2c1`, the survival is inactive: 54%.

With `COc1ccc2nc(Cl)c(CN(Cc3ccc(F)cc3)C(=O)c3ccco3)cc2c1`, the survival was inactive: 81%.

For `Cc1ccc(NC(=O)CC(C)S(=O)(=O)c2ccc3c(c2)NC(=O)CO3)c(C)c1` (configuration not stated), the survival is inactive: 78%.

As to `COc1cc(-c2ccno2)ccc1S(=O)(=O)N1CCN(c2cc(C)ccc2C)CC1`, the survival was inactive: 79%.

With `COCC(=O)Oc1c(Sc2ccc(C)cc2)c(C)nn1C(C)(C)C`, the survival was inactive: 78%.

For the molecule `COc1cccc(N2CC(NC(=O)C(c3ccccc3)c3ccccc3)CC2=O)c1` (configuration not stated), the survival is inactive: 57%.

Consider `Cc1cc(C)cc(Oc2nc3c(C)cccn3c(=O)c2/C=C(\C#N)c2nc3ccccc3[nH]2)c1`, for which the survival is inactive: 72%.

Turning to `CC(C)c1ccc(S(=O)(=O)c2nnn3c2nc(NCCc2ccccc2)c2sccc23)cc1`, the survival is inactive: 47%.

Turning to `CC(CCc1ccccc1)NC(=O)Cn1ncc2c3ccccc3n(Cc3ccc(F)cc3)c2c1=O` (configuration not stated), the survival was inactive: 90%.

With `CCCn1c(=O)c2sccc2n2c(CCCC(=O)NCCc3ccc(Cl)cc3)nnc12`, the survival was inactive: 93%.

Take `Cc1ccc(CNC(=O)c2cc3sccc3n2Cc2ccc(Cl)cc2)cc1`: the survival was inactive: 86%.

Take `CC(C)NC(=O)C1CCN(C(=O)NCc2ccccc2)CC1`: the survival is inactive: 93%.

For the molecule `O=C(NCc1ccc(F)cc1)c1ccc(CSCc2cccc(Cl)c2)o1`, the survival was inactive: 65%.

Regarding `COCCNC(=O)Cc1ccc(NC(=O)N2CCCCc3ccccc32)cc1`, the survival is inactive: 112%.

For `Cn1cc(CN(C(=O)Nc2ccc(Cl)c(Cl)c2)C2CCCCC2)c2ccccc21`, the survival was inactive: 51%.

With `COCCNC(=O)c1cnn(-c2ccc(C)cc2C)c1C1CCN(C(=O)OC(C)(C)C)CC1`, the survival is inactive: 83%.

Turning to `COc1ccc(-n2c(/C=C/c3ccccc3F)nc3cc(OC)c(OC)cc3c2=O)cc1Cl`, the survival was inactive: 94%.

Consider `Cc1ccccc1Cn1c(C(=O)O)c(CNCc2cccc(F)c2)c2ccccc21`, for which the survival was active: 52%.

Consider `O=C1c2ccccc2C(=O)C1(c1ccccc1)N1CCN(c2cccc(Cl)c2)CC1`, for which the survival was inactive: 114%.

As for `Cc1ccc(N2CC(NC(=O)/C=C\c3ccc4c(c3)OCO4)CC2=O)cc1C` (configuration not stated), the survival was inactive: 124%.

For the molecule `Cc1ccc(-c2cc(C(F)(F)F)n3nc(C(=O)Nc4ccc(Cl)cc4Cl)cc3n2)cc1`, the survival is inactive: 81%.

Regarding `CCN(CC)C(=O)C1CCN(S(=O)(=O)c2ccc3c(c2)CCCN3C(C)=O)CC1`, the survival is inactive: 124%.

In the case of `Cc1ccc(NC(=O)CSc2ncc3c(n2)-c2ccccc2N(Cc2cccc(F)c2)S3(=O)=O)cc1F`, the survival was inactive: 81%.

Consider `Cc1nc2nncn2c(N2CCN(c3ccccc3)CC2)c1C`, for which the survival is inactive: 83%.

As to `COc1ccccc1/C=C/c1nc(C#N)c(N2CCCCC2)o1`, the survival was inactive: 75%.

`Cc1ccc2nc(-c3ccsc3)c(Nc3ccccc3C)n2c1`: the survival is inactive: 55%.

Take `COc1ccc(-n2nc3ccc(NC(=O)c4ccc(-c5cc(Cl)ccc5Cl)o4)cc3n2)cc1`: the survival is active: 40%.

Turning to `COc1ccc(-n2ccnc(NCc3ccc(Cl)cc3)c2=O)cc1`, the survival was active: 8%.

Regarding `COc1ccc(NC(=O)CCc2nnc3n(C)c(=O)c4sccc4n23)cc1`, the survival was inactive: 196%.

For `C=CCc1ccccc1OCCSc1nc(-c2ccc(C(C)(C)C)cc2)nc2cc(=O)[nH]n12`, the survival is active: 32%.

As for `CC1CN(C(=O)Nc2ccc(C(=O)NCCc3ccccc3)cc2)c2ccccc2S1` (configuration not stated), the survival was inactive: 99%.

In the case of `CCOc1cc(-c2ccc(OC(=O)c3ccccc3F)cc2)cc(=O)c2c(C)oc(C)c12`, the survival was inactive: 79%.

Take `Cc1ccc(C(C(=O)NCc2ccccc2)N(C(=O)C2COc3ccccc3O2)c2cccc(O)c2)o1` (configuration not stated): the survival is active: 45%.

Consider `O=C(CSc1nccn1Cc1ccccc1)NCc1ccc(F)cc1`, for which the survival was inactive: 75%.

In the case of `CCN(Cc1ccccc1)C(=O)c1c(C)oc2ncn(C)c(=O)c12`, the survival was inactive: 84%.

On to `COc1cc2ccccc2cc1C(=O)Nc1ccc2oc(-c3ccc(F)cc3)nc2c1`, for which the survival is active: 43%.

Turning to `CCc1ccccc1NC(=O)c1nnn(-c2ccc(F)cc2)c1C`, the survival is inactive: 74%.

Turning to `CC1CCN(S(=O)(=O)c2ccc3c(c2)oc(=O)n3CC(=O)NCc2ccc(F)cc2)CC1`, the survival was inactive: 111%.

For `CCOc1ccc(NC(=O)Cn2c(=O)n(Cc3ccco3)c(=O)c3oc4ccccc4c32)cc1`, the survival is inactive: 76%.

`COc1cccc(NC(=O)C2CCCN(S(=O)(=O)c3c(C)[nH]c(=O)[nH]c3=O)C2)c1` (configuration not stated): the survival is inactive: 139%.

In the case of `Cc1cc(C)cc(NC(=O)CCC(=O)N2Cc3ccccc3Oc3ncccc32)c1`, the survival is inactive: 95%.

As to `O=C(Nc1ccc(Br)c2cccnc12)c1cccc2ccccc12`, the survival was active: 29%.

For the molecule `Cc1ccc(CCNC(=O)c2cc3sccc3n2Cc2ccc(C)cc2)cc1`, the survival was inactive: 80%.

With `CCCc1cnc2c(c1SCC(=O)N(C)c1ccccc1)c(=O)n(C)c(=O)n2C`, the survival was inactive: 118%.

As for `Cc1c(Cl)ccc2sc(NC(=O)c3ccc(S(=O)(=O)N4CCCc5ccccc54)cc3)nc12`, the survival is inactive: 55%.

Regarding `COc1cccc(CNC(=O)C2CCCN(S(=O)(=O)c3ccc4c(ccn4C)c3)C2)c1` (configuration not stated), the survival is inactive: 124%.

On to `Cc1nc2c(-c3ccccc3)c(C)nn2c(C)c1CCC(=O)NC(C)c1ccccc1` (configuration not stated), for which the survival was inactive: 93%.

`COc1ccc(NC(=O)CC2C(=O)N(c3ccc(F)cc3)C(=O)N2Cc2cccnc2)cc1` (configuration not stated): the survival was inactive: 99%.

Consider `CCCN(C(=O)c1cc2c(s1)-c1ccccc1OC2)c1ccccc1F`, for which the survival is active: -4%.

In the case of `CCOC(=O)c1cccc(NC(=O)c2oc3c(c2C)-c2[nH]ncc2CC3)c1`, the survival was inactive: 69%.

For the molecule `CCC(C(=O)Nc1ccc(C(=O)OC)cc1)n1c(=O)c(-c2ccccc2NC(C)=O)nc2ccccc21` (configuration not stated), the survival was inactive: 94%.

As to `CCc1ccccc1NS(=O)(=O)c1ccc2[nH]cc(C(=O)N3CCCCC3)c(=O)c2c1`, the survival is inactive: 121%.

As for `COc1cc(CN(C(=O)Nc2ccccc2)c2ccccn2)cc(OC)c1OC`, the survival is inactive: 66%.

As to `Cc1ccc(Oc2c(C(F)(F)F)oc3c(CN4CCCCC4)c(O)ccc3c2=O)cc1`, the survival is inactive: 48%.

With `CCOc1cccc2cc(-c3nc(-c4ccccc4C)no3)c(=O)oc12`, the survival was inactive: 76%.

For the molecule `Cc1cc(F)ccc1NC(=O)CCS(=O)(=O)c1ccc2c(c1)NC(=O)CO2`, the survival was inactive: 88%.

Consider `O=C(Nc1ccc(Cl)cc1)C1CCCN(S(=O)(=O)c2ccc3[nH]c(=O)ccc3c2)C1` (configuration not stated), for which the survival is inactive: 88%.

With `CCOC(=O)c1ccccc1NC(=O)CSc1cn(CC(=O)N2CCCCC2)c2ccccc12`, the survival was inactive: 79%.

In the case of `OCC1OC(n2nnc3ccccc32)C(O)C(O)C1O` (configuration not stated), the survival was inactive: 96%.

`Cc1ccc(-n2nc(C(=O)N3CCN(c4cc(Cl)ccc4C)CC3)c(=O)n(C)c2=O)cc1`: the survival is inactive: 116%.

For the molecule `CCc1ccc(C(=O)c2cn(CC(=O)Nc3ccc(F)c(F)c3)c3cc(OC)c(OC)cc3c2=O)cc1`, the survival is inactive: 121%.

For the molecule `CCCCNC(=O)C1CCCN(Cc2nc(-c3ccc(Cl)cc3)oc2C)C1` (configuration not stated), the survival is inactive: 77%.

With `Cc1ccc(NC(=O)c2cc(S(=O)(=O)NCCC3=CCCCC3)ccc2F)cc1F`, the survival was inactive: 115%.

As to `COc1ccc(Cl)cc1NC(=O)c1ccc2nc(Cc3ccccc3)oc2c1`, the survival was inactive: 101%.

For the molecule `O=C(O)c1cccc(N=C2NC(=O)C(CO)(CO)S2)c1`, the survival was inactive: 89%.

For `CC(C)CCNC(=O)c1cccc(Nc2nc3ccccc3n3nnnc23)c1`, the survival is active: 39%.

For `CCCC(=O)Nc1cc(C)c(O)c(-c2nc3ncccc3o2)c1`, the survival is inactive: 91%.

Regarding `Cc1cc(OCC(=O)Nc2ccc(-c3nc4cc(Cl)ccc4o3)cc2)cc(C)c1Cl`, the survival is inactive: 81%.

Consider `CCc1ccc(C2CC(=O)c3c([nH]c(C(=O)OCC4CCCCC4)c3C)C2)cc1` (configuration not stated), for which the survival was inactive: 89%.

Regarding `NS(=O)(=O)c1ccc(CCNC(=O)C2COc3ccccc3C2)cc1` (configuration not stated), the survival is inactive: 71%.

Consider `Cc1ccc(Cn2c(=O)c3cccnc3n(CC(=O)Nc3cccc(C(F)(F)F)c3)c2=O)cc1`, for which the survival is inactive: 64%.

As for `O=C(COc1ccccc1)NCc1ccc2c(c1)CCN2C(=O)c1ccc(F)cc1`, the survival was inactive: 94%.

For the molecule `Cc1ccc(-n2ncc3c(N4CCCCCC4)ncnc32)cc1`, the survival was inactive: 100%.

For the molecule `COc1cc(NC(=O)CCn2c(-c3ccccc3)cc(C(C)=O)c2C)cc(OC)c1`, the survival was inactive: 78%.
